# Laboratory results published in PubChem BioAssay AID1460 (National Center for Advancing Translational Sciences (NCATS), 2008).
# In all, about 270,000 compounds went through this assay and about 5,800 (2.1%) were called active. The inconclusive results got no clear call from the source; some entries with a clear call stand among them for comparison. The call rests on the fitted dose curve; in most records, active means well fitted inhibition curve with a large enough effect; inconclusive means small, poorly fitted or top-dose-only effect; inactive means flat fitted curve, though single readings scatter. Potencies beside an inconclusive call are fits to weak or partial responses and may not hold up.
# Target: Microtubule-associated protein tau (Homo sapiens) (UniProt P10636)
# Experiment: qHTS for Inhibitors of Tau Fibril Formation, Thioflavin T Binding; further: nearly all actives have a fitted effect of over 55% in size
# Details: recombinant tau K18 P301L (four-repeat tau fragment), heparin-induced fibrillization, ThT fluorescence; series mostly up to 57.4 µM
# How it was run: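 Heparin-induced fibrillization of the P301L-mutant K18 repeat-domain fragment of human tau was followed by ThT binding in quantitative high-throughput format.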
# Potency means the concentration at half of the fitted maximal effect; tags describe the fitted curve by direction and shape.
# Sequence of UniProt P10636 (P10636 whole entry, looked up): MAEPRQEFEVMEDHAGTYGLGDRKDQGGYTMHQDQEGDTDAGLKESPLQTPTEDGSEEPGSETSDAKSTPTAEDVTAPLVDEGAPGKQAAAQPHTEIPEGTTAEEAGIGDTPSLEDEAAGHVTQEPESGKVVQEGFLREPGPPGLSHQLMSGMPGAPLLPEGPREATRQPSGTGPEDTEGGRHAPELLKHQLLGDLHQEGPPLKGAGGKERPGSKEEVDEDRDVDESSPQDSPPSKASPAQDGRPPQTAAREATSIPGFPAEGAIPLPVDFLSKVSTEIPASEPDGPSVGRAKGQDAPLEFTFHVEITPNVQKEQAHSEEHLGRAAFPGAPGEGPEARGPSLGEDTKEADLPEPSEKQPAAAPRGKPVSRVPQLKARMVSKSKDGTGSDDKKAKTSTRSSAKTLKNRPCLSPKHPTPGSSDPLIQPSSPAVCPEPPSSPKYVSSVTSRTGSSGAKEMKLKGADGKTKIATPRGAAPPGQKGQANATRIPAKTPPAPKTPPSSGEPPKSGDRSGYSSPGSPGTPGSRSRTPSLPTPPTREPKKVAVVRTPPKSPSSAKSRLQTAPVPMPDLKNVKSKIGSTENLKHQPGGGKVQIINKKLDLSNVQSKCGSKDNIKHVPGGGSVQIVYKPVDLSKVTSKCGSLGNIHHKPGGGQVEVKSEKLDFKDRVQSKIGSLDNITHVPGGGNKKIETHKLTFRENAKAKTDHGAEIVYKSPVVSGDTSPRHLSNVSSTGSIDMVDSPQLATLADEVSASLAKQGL
row,Structure (SMILES),Potency
1,CCOC(=O)c1ccc(N2C(=O)CC(N(C)CCc3ccc(OC)c(OC)c3)C2=O)cc1 (stereo not drawn),"inconclusive: 39.8 µM [inhibitor, partial curve]"
2,COc1ccccc1N1CCN(C(=O)Cc2c(C(=O)O)[nH]c3ccc(Cl)cc23)CC1,inactive
3,CC1(C)CC(=O)C(C=Nc2cccnc2)=C(O)C1,inactive
4,Cc1ccc(C)c(NC(=O)CCCN2C(=O)COc3ccc(C)cc32)c1,inactive
5,COC(=O)c1sccc1-c1ccc(/C=N/OCc2c(Cl)cccc2Cl)o1,"inconclusive: 12.6 µM [inhibitor, partial curve, poor fit]"
6,CCOC(=O)c1c(-c2ccc(F)cc2)csc1NC(=O)CCN1CCOCC1,inactive
7,COc1cc(OC)c(OC)cc1/C=N/NC(=O)c1ccc2nc[nH]c2c1,"inconclusive: 22.4 µM [inhibitor, partial curve]"
8,COc1cc(C2C(C(C)=O)=C(O)C(=O)N2CCc2c[nH]c3ccccc23)ccc1O (stereo not drawn),"inconclusive: 31.6 µM [inhibitor, partial curve, poor fit]"
9,CC(=O)Nc1ccc(N/C=C2/CCCC2=O)cc1,"inconclusive: 31.6 µM [inhibitor, partial curve, poor fit]"
10,CC1(C(=O)NC2CCCCC2)Cc2ccccc2C(=O)N1Cc1ccc(Cl)cc1 (stereo not drawn),inactive
11,O=C(c1ccc(-c2ccc([N+](=O)[O-])cc2)o1)N1CCCCC1,"inconclusive: 17.8 µM [inhibitor, partial curve]"
12,CCOC(=O)c1cnc2ccccc2c1NCc1ccco1,"inconclusive: 20 µM [inhibitor, partial curve]"
13,Cn1c(=O)c2c(nc(SCC(=O)Nc3ccc(F)cc3F)n2Cc2ccccc2)n(C)c1=O,inactive
14,Cc1c(C)n(Cc2ccc(F)cc2)c2ccc(C(=O)N3CCN(c4ccc(Cl)cc4)CC3)cc12,inactive
15,COc1ccc(/C=C/C(=O)Nc2ccc3nc(N4CCC(C)CC4)cc(C)c3c2)cc1OC,active: 3.55 µM
16,CC(C)=C(NC(=O)c1ccccc1)C(=O)Nc1cccc(C(=O)O)c1,inactive
17,Cc1cc(C)cc(NC(=O)c2sc3nc(-c4ccccc4)cn3c2C)c1,"inconclusive: 0.891 µM [inhibitor, full curve]"
18,CC1(C)Cc2c(c(-c3ccccc3)[nH]c(=O)c2C#N)CS1,inactive
19,C=CCOC(=O)/C(=C/c1ccco1)NC(=O)/C=C/c1ccccc1,inactive
20,Cc1ccc(S(=O)(=O)c2nc(-c3ccco3)oc2SC(C)C)cc1,"inconclusive: 25.1 µM [inhibitor, partial curve]"
21,COc1ccc(C(=O)Nc2ccc(/C(C)=N/NC(=O)c3ccccc3O)cc2)cc1OC,"inconclusive: 0.562 µM [inhibitor, full curve]"
22,Cc1ccc(NC(=O)Cn2c(=O)n(-c3ccc(C)cc3)c(=O)c3ccc(C(=O)NCc4ccccc4Cl)cc32)cc1,"inconclusive: 31.6 µM [activator, partial curve, poor fit]"
23,CC(=O)N[C@H](Cc1c[nH]c2ccccc12)C(N)=O,inactive
24,Oc1ccc(CN2CCN(Cc3ccccc3)CC2)c2cccnc12,inactive
25,COc1cc(C2NC(C(=O)O)CS2)ccc1OCc1ccccc1C#N (stereo not drawn),inactive

row,Structure (SMILES),Potency
1,COC(=O)Cc1[nH]nc2c1C(C1C=CCCC1)C(C#N)=C(N)O2 (stereo not drawn),"inconclusive: 35.5 µM [inhibitor, partial curve]"
2,CCOC(=O)C1=C(C)NC(=O)C1CC(=O)Nc1ccccc1 (stereo not drawn),inactive
3,CC(=O)c1ccc(OC(=O)C(CCS(C)(=O)=O)N2C(=O)c3ccccc3C2=O)cc1 (stereo not drawn),"inconclusive: 14.1 µM [inhibitor, partial curve]"
4,CCOc1ccc(NC(=O)CSc2cc(C)c3ccccc3n2)cc1,inactive
5,CCOc1ccc(CNC(=O)CN2C(=O)CCn3nc(-c4cn(C)c5ccccc45)cc32)cc1OC,inactive
6,Cc1noc(NS(=O)(=O)c2ccc(NC(=O)COc3ccc(Cl)cc3Cl)cc2)c1C,"inconclusive: 22.4 µM [inhibitor, single point]"
7,c1ccc(Nc2ccccn2)nc1,inactive
8,Cc1cccc(-c2n[nH]c(=S)n2/N=C/c2ccco2)c1,inactive
9,Clc1nnc(N/N=C/c2ccccc2)c2ccccc12,"inconclusive: 2.51 µM [inhibitor, full curve]"
10,COc1ccc(S(=O)(=O)N2CCN(Cc3nc4ccc(C)cc4o3)CC2)cc1OC,inactive
11,Cc1ccc(-c2csc(NC(=O)/C=C/c3cccs3)n2)cc1C,"inconclusive: 3.55 µM [inhibitor, full curve]"
12,O=C(NC(=S)Nc1ccc(C(F)(F)F)cc1)c1csnn1,"inconclusive: 28.2 µM [inhibitor, partial curve]"
13,COc1ccc(C)c2sc(=NC(=O)c3ccc(C(C)=O)cc3)n(C)c12,"inconclusive: 1.58 µM [inhibitor, full curve]"
14,CC12C=C(/C=C/C=C/c3ccco3)C(C)(C1)C(/C=C/c1ccco1)CC2=O (stereo not drawn),"inconclusive: 3.55 µM [inhibitor, partial curve]"
15,Cn1cc(Cl)c(C(=O)Nc2nc3ccc([N+](=O)[O-])cc3s2)n1,"inconclusive: 3.16 µM [inhibitor, full curve]"
16,CCOc1cc2sc(N3CCC(C(=O)Nc4ccc(C(C)C)cc4)CC3)nc2cc1Br,"inconclusive: 2 µM [inhibitor, full curve]"
17,CCOc1ccc(NC(=O)CN(c2ccccc2OCC)S(=O)(=O)c2ccccc2)cc1,"inconclusive: 11.2 µM [inhibitor, partial curve]"
18,CC(=O)c1ccccc1Oc1nc(CN2CCOCC2)nc2scc(-c3cccs3)c12,"inconclusive: 20 µM [inhibitor, single point]"
19,COC(=O)C1=C(C(=O)OC)SC(=C2C(=S)C(C)(C)N(C(=O)C3CC3)c3ccccc32)S1,active: 2.51 µM
20,COC(=O)c1ccc(C(=O)OC)c(NC(=S)N2CCCCC2)c1,inactive
21,Cc1n[nH]c(=S)n1Cc1ccccc1,inactive
22,O=C(CN1CCN(c2ncccn2)CC1)N1CCCc2c1c(=O)oc1ccc(O)cc21,inactive
23,COCCCn1cnc2c(c1=O)c1nc3ccccc3nc1n2-c1ccccc1,"inconclusive: 31.6 µM [inhibitor, single point]"
24,CCCOc1ccc(-c2nc(OC)c3ccccc3n2)cc1,"inconclusive: 4.47 µM [inhibitor, full curve]"
25,CCCOc1ccc(CNC(=O)C(C)n2nc(C)n3c(cc4occc43)c2=O)cc1 (stereo not drawn),inactive

row,Structure (SMILES),Potency
1,CCC(=O)NCc1ccc2[nH]c(C)cc2c1,inactive
2,CCc1nnc(NS(=O)(=O)c2ccc(N=Cc3c(C)[nH]n(-c4cccc(Cl)c4)c3=O)cc2)s1,"inconclusive: 17.8 µM [inhibitor, partial curve]"
3,Cc1cc(N/N=C/c2ccc(O)cc2O)nc(-n2nc(C)cc2C)n1,"inconclusive: 1.41 µM [inhibitor, full curve]"
4,C(=C\c1nc2ccccc2[nH]1)/c1ccccc1,inactive
5,COc1cccc(C2CC(c3cccs3)=NN2C(=O)CSc2nc3c(cnn3-c3ccc(F)cc3)c(=O)[nH]2)c1OC (stereo not drawn),"inconclusive: 10 µM [inhibitor, partial curve, poor fit]"
6,Cc1ccc(C(=O)N2c3ncnn3C3(CCCCC3)[C@@H]3CCCC[C@@H]32)cc1,inactive
7,Oc1ccc(-c2nccc(-c3cccs3)n2)cc1,"inconclusive: 44.7 µM [inhibitor, single point]"
8,CC(Sc1nc(-c2ccco2)nc2c1c(=O)n(C)c(=O)n2C)C(=O)O (stereo not drawn),inactive
9,COc1cccc(C(=O)N2CC(=O)Nc3ccc(C)cc3C2c2ccc(F)cc2)c1OC (stereo not drawn),inactive
10,CCOC(=O)c1ccc(N/C=C2/CCCC(C)C2=O)cc1 (stereo not drawn),"inconclusive: 15.8 µM [inhibitor, partial curve]"
11,NC(=S)NNc1cc(Cl)cc(Cl)c1,"inconclusive: 12.6 µM [inhibitor, partial curve]"
12,COc1ccc(NC(=O)CC2C(=O)N(c3ccc(OC)cc3)C(=O)N2C2CCCCC2)cc1 (stereo not drawn),"inconclusive: 44.7 µM [inhibitor, single point]"
13,O=C(CCc1nnc(C2CCCCC2)o1)N1CCN(C2CCCCC2)CC1,"inconclusive: 28.2 µM [inhibitor, single point]"
14,Cc1cc(C)n(CCNC(=O)c2cc(COc3ccc4ncccc4c3)on2)n1,"inconclusive: 3.16 µM [inhibitor, full curve]"
15,CC(OC(=O)CNC(=O)C12CC3CC(CC(C3)C1)C2)C(=O)Nc1ccc(N2CCOCC2)cc1 (stereo not drawn),"inconclusive: 3.98 µM [inhibitor, full curve]"
16,CC(=O)/C=C(\C)Nc1ccccc1O,"inconclusive: 31.6 µM [inhibitor, partial curve]"
17,C/C(=N/NC(=O)c1ccc2c(c1)OCO2)c1ccc(NC(=O)C(F)(F)F)cc1,"inconclusive: 39.8 µM [inhibitor, single point]"
18,CCOC(=O)c1ccc(Nc2nc(N)c3cc(OC)c(OC)cc3n2)cc1,"inconclusive: 3.16 µM [inhibitor, full curve]"
19,Clc1ccc2c(c1)c1ccccc1n2CN1CCOCC1,inactive
20,N#C/C(C(N)=O)=C1/SC=C(c2ccccc2)N1c1ccccc1,inactive
21,CCOC(=O)/C(C#N)=C/c1cc(C)n(-c2ccccc2)c1C,"inconclusive: 28.2 µM [inhibitor, partial curve]"
22,Cc1cccc(CCNC(=O)c2ccc3c(c2)nc2n3CCOC2)c1,"inconclusive: 2.24 µM [inhibitor, partial curve]"
23,Cc1ccc(C)n1CCN1CCN(C(=O)c2ccc(Cl)cc2)CC1,"inconclusive: 15.8 µM [inhibitor, single point]"
